{"source": "PubChem BioAssay AID1347417", "about": "(National Center for Advancing Translational Sciences (NCATS), 2020)", "note": "Hit rate of the full screen: of about 120,000 compounds, about 5,300 (4.4%) were called active. This list was built around the results that the source calls inconclusive (neither active nor inactive); the mix of calls is not that of the screen. The call rests on the fitted dose curve; in most records, active means well fitted inhibition curve with a large enough effect; inconclusive means small, poorly fitted or top-dose-only effect; inactive means no such curve, though single readings can be large or run the other way. Potencies of inconclusive entries are doubtful fits and often do not repeat. Potency means the concentration at half of the fitted maximal effect; tags describe the fitted curve by direction and shape."}
{"assay": "qHTS Primary assay for Inhibitors of Plasmodium falciparum Dd2 growth in vitro; further: nearly all actives have a fitted effect of over 65% in size;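 on activity, negative = inhibition: plate controls were DMSO vehicle for no effect and reference drug for full effect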", "conditions": "P. falciparum Dd2 growth, SYBR Green, 72 h; activity, negative = inhibition: at 28.9 µM (top of the series) unless noted; series mostly up to 28.9 µM", "procedure,_shortened": "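Readout: SYBR Green fluorescence, 485 nm excitation, 535 nm emission, after ~16 h lysis at 37C. Before that, Dd2-infected red cells (2.5% hematocrit) grew 72 h with compound, 29 uM top final concentration.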"}
{"smiles": "CCCN1CCCC12Cc1ccccc1CN(C(=O)CC)C2", "note": "(centres undefined)", "Potency": "inconclusive: 10 µM [inhibitor, single point]"}
{"smiles": "CN1CCN(C(=O)[C@@H]2CCC[C@@H](NCc3ccc(F)cc3)CN(C)C(=O)C2)CC1", "activity, negative = inhibition": "inactive: 9.88% [at 44.1 µM]"}
{"smiles": "CN(C)c1ccc(-c2noc(-c3nc(-c4ccccc4F)no3)n2)cc1", "activity, negative = inhibition": "inactive: -8.81%"}
{"smiles": "COc1ccc2[nH]c3c(c2c1)CCN(C)C31CCN(C(=O)c2ccccc2)CC1", "outcome": "inactive"}
{"smiles": "COc1cccc(-c2cc3c(=O)n(CCNC(=O)Cc4cccs4)ccn3n2)c1", "Potency": "inconclusive: 10 µM [inhibitor, single point]"}
{"smiles": "CC(C(N)=O)N1CCC2(CC1)C(=O)N(C)c1ccccc12", "note": "(centres undefined)", "activity, negative = inhibition": "inactive: -3.55%"}
{"smiles": "Cc1cccc(N(C)C(=O)Cn2c(=O)n(-c3ccccc3)c(=O)c3c2cc(C)n3C)c1", "Potency": "inconclusive: 17.8 µM [inhibitor, single point]"}
{"smiles": "COc1cccc(-c2ncc3c(n2)OCCN(c2ccccc2)C3=O)c1", "Potency": "inconclusive: 11.2 µM [inhibitor, partial curve, poor fit]"}
{"smiles": "Cn1c(CO[C@H]2CN(Cc3ccc4c(c3)OCO4)C[C@H]2F)nc2ccccc21", "outcome": "inactive [at 44.1 µM]"}
{"smiles": "O=C(NCCc1ccccc1)c1nc(-c2ccc(Cl)cc2)n2c1CCCCC2", "Potency": "inconclusive: 10 µM [inhibitor, single point]"}
{"smiles": "O=C(Cc1ccccc1)Nc1sc2c(c1C(=O)Nc1ccc(Br)cc1)CCC2", "Potency": "inconclusive: 3.98 µM [inhibitor, partial curve, poor fit]"}
{"smiles": "Cn1cc(CC(=O)N2CCCc3ncc(C(=O)N4CCCC[C@@H]4c4ccccc4)cc32)c2ccccc21", "Potency": "inconclusive: 20 µM [inhibitor, single point]"}
{"smiles": "COc1ccccc1C(=O)Nc1ccccc1OCc1cc(=O)n2ccccc2n1", "Potency": "inconclusive: 11.2 µM [inhibitor, single point]"}
{"smiles": "COC[C@@H]1CN(S(=O)(=O)c2cc(F)ccc2OC)C[C@H]1C(N)=O", "activity, negative = inhibition": "inactive: 1.32%"}
{"smiles": "Cc1noc(C)c1Cn1cc2c3c(cccc31)[C@H](CC(C)C)N[C@H](C(=O)N1CCOCC1)C2", "Potency": "inconclusive: 2.82 µM [inhibitor, single point]"}
{"smiles": "COc1cc2c(cc1OC)C(COc1cccc(C(F)(F)F)c1)N(C(=O)c1ccc(S(=O)(=O)N3CCCC3)cc1)CC2", "note": "(centres undefined)", "Potency": "active: 7.94 µM"}
{"smiles": "CNC(=O)C(C)(C)N1CCC[C@H]1C(=O)N1CCCC1", "activity, negative = inhibition": "inactive: 32.4% [at 44.1 µM]"}
{"smiles": "CN(CC1(C)CCOCC1)C(=O)c1ccco1", "Potency": "inconclusive: 0.316 µM [inhibitor, full curve, poor fit]"}
{"smiles": "O=C1c2c(nc(CNc3ccc(OC(F)(F)F)cc3)n2Cc2ccccc2)NCCN1CCN1CCOCC1", "Potency": "active: 5.01 µM"}
